{"source": "patent US20230037911A1", "about": "(SHANGHAI HENLIUS BIOTECH, published 2023)", "binders": {"B1": {"name": "15A5 bivalent VHH antibody (VHH with human CH2 and CH3) (Fc fusion)", "chain": "QVQLVESGGGLVQAGGSLRLSCAASERTFSSFAMGWFRQAPGKEREVVAAIDPSGRYIYYKDSVKGRFTMSRDNAKSTVYLQMNSLKPDDTARYYCAARIRGEGYYTRSSFYHYWGQGTQVTVSS[… human IgG1 Fc …]", "notes": "domain: CH2 and CH3"}, "B2": {"name": "2B7 bivalent VHH antibody (VHH with human CH2 and CH3) (Fc fusion)", "chain": "QVQLVESGGGLVQAGGSLRLACAASGRTFSSYPMGWFRQGPGKERESVAAISSDGRFTYYAASVKGRFTISKDNAKSAAFLQMNSLKPEDTAVYYCAARDSGSGYYSRAQWYDYWGQGTQVTVSS[… human IgG1 Fc …]", "notes": "domain: CH2 and CH3; Expressed in ExpiCHO, Protein A purified"}, "B3": {"name": "13H11 bivalent VHH antibody (VHH with human CH2 and CH3) (Fc fusion)", "chain": "B2 chain with A21S, R27L, S31M, P33A", "notes": "domain: CH2 and CH3"}, "B4": {"name": "2A3-LT-Fc (2A3 ML_DT VHH fused to wild type human IgG1 Fc) (Fc fusion)", "chain": "QVQLVESGGGVVQPGRSLRLSCAASGGSFSSYPMGWFRQAPGKERESVAAISSDLRFTYYADSVKGRFTISRDNSKNTLYLQMNSLRAEDTAVYYCAARTSGVGYYSRAQWYDYWGQGTLVTVSS[… human IgG1 Fc …]", "notes": "also called 2A3-LT-Fc wt; 2A3-LT-Fc wild type"}}, "key": {"[1]": {"molecular_target": "T1, human TIGIT stably expressed on cells (Jurkat; 293T) (human, UniProt Q495A1 22-244)", "T1 construct": "the expression vector's insert is not described further; also called h-TIGIT; human TIGIT transfected Jurkat cells", "T1 sequence": "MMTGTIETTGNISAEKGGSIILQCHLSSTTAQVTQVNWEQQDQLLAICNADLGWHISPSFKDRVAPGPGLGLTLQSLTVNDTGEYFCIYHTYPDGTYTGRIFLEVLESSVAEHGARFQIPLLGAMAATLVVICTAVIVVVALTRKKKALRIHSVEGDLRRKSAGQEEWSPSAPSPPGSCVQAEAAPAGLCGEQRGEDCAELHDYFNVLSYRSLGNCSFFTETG", "test": "flow cytometry, whole cell binding on Jurkat cells stably expressing human TIGIT; Alexa Fluor 488 anti-human IgG Fc secondary", "text": "FIGS. 1A-1C depict whole cell binding of representative VHH bivalent antibodies to human TIGIT determined by flowcytometry assays. […] Y axis represents Mean Fluorescence Intensity of AlexaFlour 488. X axis represents antibody concentrations in nanomolar. […] FIG. 1C is a schematic of the structure of a TIGIT VHH bivalent antibody.\nJurkat cells stably expressing human TIGIT and NFAT reporter gene were established. Specifically, Jurkat cells were transfected with human TIGIT expression vector by electroporation, and cells stably expressing human TIGIT were selected by 1 μg/ml puromycin during cell culture. Representative antibody clones were incubated at different concentrations with h-TIGIT stably expressing Jurkat cells (0.2×10⁶/ml) in 100 μl/well in 96-well plate in FACS buffer (PBS with 1.5% FBS) for 30 min. After washing, Alexaflour 488 conjugated anti-human IgG Fc secondary antibody (Alexa Fluor® 488 AffiniPure Goat Anti-Human IgG, Fcγ fragment specific, Jackson labs, 1:500 dilution) was added and incubated for 30 min. After washing, mean fluorescence intensity was measured using CytoFlex (Beckman Coulter) by gating live cell population. Binding affinity was calculated using GraphPad Prism."}, "[2]": {"molecular_target": "T1, human TIGIT stably expressed on cells …", "test": "cell-based or functional assay"}, "[3]": {"molecular_target": "T1, human TIGIT stably expressed on cells …", "test": "cell-based or functional assay", "remark": "listed apart in the source"}, "[4]": {"molecular_target": "T1, human TIGIT stably expressed on cells …", "test": "flow cytometry, whole cell binding assay on human TIGIT expressing cells (upper panel)"}, "[5]": {"molecular_target": "T1, human TIGIT stably expressed on cells …", "test": "flow cytometry (CytoFlex), whole cell binding on h-TIGIT cells; representative of three experiments"}, "[6]": {"molecular_target": "T1, human TIGIT stably expressed on cells …", "test": "cell-based or functional assay", "remark": "listed apart in the source"}}, "note": "Where a chain is given by its changes, count along the chain named.", "data": [{"binder": "B1", "values": [{"measurement": "EC50 (read off the curve)", "setting": "[1]", "result": "~60", "unit": "pM"}]}, {"binder": "B2", "values": [{"measurement": "EC50 (read off the curve); NFAT luciferase reporter (RLU), h-TIGIT/NFAT Jurkat cells with PVR Raji cells and SEE", "setting": "[2]", "result": "~1000", "unit": "pM"}]}, {"binder": "B3", "values": [{"measurement": "EC50 (read off the curve)", "setting": "[1]", "result": "~200", "unit": "pM"}]}, {"binder": "B4", "values": [{"measurement": "EC50 (nM), TIGIT blockade NFAT luciferase reporter assay, Average", "setting": "[3]", "result": 0.57, "unit": "nM"}, {"measurement": "EC50 (nM), TIGIT blockade NFAT luciferase reporter assay, Exp 1", "setting": "[3]", "result": 0.58, "unit": "nM"}, {"measurement": "EC50 (nM), TIGIT blockade NFAT luciferase reporter assay, Exp 2", "setting": "[3]", "result": 0.687, "unit": "nM"}, {"measurement": "EC50 (nM), TIGIT blockade NFAT luciferase reporter assay, Exp 3", "setting": "[3]", "result": 0.45, "unit": "nM"}, {"measurement": "EC50 (read off the curve)", "setting": "[4]", "result": "~500", "unit": "pM"}, {"measurement": "EC50 (read off the curve)", "setting": "[5]", "result": "~300", "unit": "pM"}, {"measurement": "EC50 (read off the curve); NFAT reporter activity (RLU), human TIGIT blockade reporter assay (lower panel)", "setting": "[6]", "result": "~1000", "unit": "pM"}]}]}
